The values below come from publication PMC12820563.

The list shows a part of the results. The list includes weakly bound sequences.

The test addresses T1, MBP-FoxP3dN (UniProt Q99JB6).
T1 sequence: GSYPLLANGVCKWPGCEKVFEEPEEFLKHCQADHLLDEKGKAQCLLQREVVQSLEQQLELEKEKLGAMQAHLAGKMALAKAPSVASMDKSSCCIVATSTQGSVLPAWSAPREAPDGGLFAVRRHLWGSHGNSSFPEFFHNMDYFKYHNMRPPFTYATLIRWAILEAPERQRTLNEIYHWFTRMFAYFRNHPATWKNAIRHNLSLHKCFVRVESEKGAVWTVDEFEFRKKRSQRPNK
The experiment in a line: PD-seq (MBP pull-down with sequencing). The following applies: 20 mM Tris-HCl pH 7.5, 100 mM NaCl, 1.5 mM MgCl2, 0.4 uM protein, 0.1 uM dsDNA library, 30 min, room temperature, amylose pull-down; high values mean tight binding; double strand, one strand shown.
On to “GATGATTGTTCTCCCAGCTGATGAATTCTTAAGTTCGAGTAAACAAATTTTCCTAATCTTTCTGTTCAAGCGCCATCTAC”, for which the binding signal (RPM ratio (pull-down/input)) came to 0.237. With “GATGATTGTTCTCCCAGCTGATGAATTAACCATATCGAGTAAACAAATTTTCCTAATCTTTCTGTTCAAGCGCCATCTAC”, the binding signal (RPM ratio (pull-down/input)) is 0.414.

Turning to “GATGATTGTTCTCCCAGCTGATGAATTTATCGTATCGAGTAAACAAATTTTCCTAATCTTTCTGTTCAAGCGCCATCTAC”, the binding signal (RPM ratio (pull-down/input)) was determined as 1.92.

As to “GATGATTGTTCTCCCAGCTGATGAATTTTAAGGCTCGAGTAAACAAATTTTCCTAATCTTTCTGTTCAAGCGCCATCTAC”, the binding signal (RPM ratio (pull-down/input)) stood at 0.29. As to “GATGATTGTTCTCCCAGCTGATGAATTATTGCAATCGAGTAAACAAATTTTCCTAATCTTTCTGTTCAAGCGCCATCTAC”, the binding signal (RPM ratio (pull-down/input)) amounted to 4.25. Turning to “GATGATTGTTCTCCCAGCTGATGAATTATCGCGTTCGAGTAAACAAATTTTCCTAATCTTTCTGTTCAAGCGCCATCTAC”, the binding signal (RPM ratio (pull-down/input)) amounted to 1.37.

With “GATGATTGTTCTCCCAGCTGATGAATTGTTGTTCTCGAGTAAACAAATTTTCCTAATCTTTCTGTTCAAGCGCCATCTAC”, the binding signal (RPM ratio (pull-down/input)) worked out at 7.17. For “GATGATTGTTCTCCCAGCTGATGAATTTCGTCTGTCGAGTAAACAAATTTTCCTAATCTTTCTGTTCAAGCGCCATCTAC” the value was 0.577. In the case of “GATGATTGTTCTCCCAGCTGATGAATTTGCGGCTTCGAGTAAACAAATTTTCCTAATCTTTCTGTTCAAGCGCCATCTAC”, the binding signal (RPM ratio (pull-down/input)) came out at 0.833. Take “GATGATTGTTCTCCCAGCTGATGAATTAGGTTTTTCGAGTAAACAAATTTTCCTAATCTTTCTGTTCAAGCGCCATCTAC”: the binding signal (RPM ratio (pull-down/input)) worked out at 1.51. For the sequence “GATGATTGTTCTCCCAGCTGATGAATTGCAATTCTCGAGTAAACAAATTTTCCTAATCTTTCTGTTCAAGCGCCATCTAC”, the binding signal (RPM ratio (pull-down/input)) turned out to be 1.76. Regarding “GATGATTGTTCTCCCAGCTGATGAATTCGATCAGTCGAGTAAACAAATTTTCCTAATCTTTCTGTTCAAGCGCCATCTAC”, the binding signal (RPM ratio (pull-down/input)) worked out at 0.29.

On to “GATGATTGTTCTCCCAGCTGATGAATTTGACTACTCGAGTAAACAAATTTTCCTAATCTTTCTGTTCAAGCGCCATCTAC”, for which the binding signal (RPM ratio (pull-down/input)) was 0.767. For the sequence “GATGATTGTTCTCCCAGCTGATGAATTTCTTAGCTCGAGTAAACAAATTTTCCTAATCTTTCTGTTCAAGCGCCATCTAC”, the binding signal (RPM ratio (pull-down/input)) was 0.342.

With “GATGATTGTTCTCCCAGCTGATGAATTGCTAGTGTCGAGTAAACAAATTTTCCTAATCTTTCTGTTCAAGCGCCATCTAC”, the binding signal (RPM ratio (pull-down/input)) came to 0.949.

Regarding “GATGATTGTTCTCCCAGCTGATGAATTTCTTGTGTCGAGTAAACAAATTTTCCTAATCTTTCTGTTCAAGCGCCATCTAC”, the binding signal (RPM ratio (pull-down/input)) is 1.59. Consider “GATGATTGTTCTCCCAGCTGATGAATTGCGCACCTCGAGTAAACAAATTTTCCTAATCTTTCTGTTCAAGCGCCATCTAC”, for which the binding signal (RPM ratio (pull-down/input)) came to 2.12. “GATGATTGTTCTCCCAGCTGATGAATTTTTAAGCTCGAGTAAACAAATTTTCCTAATCTTTCTGTTCAAGCGCCATCTAC”: the binding signal (RPM ratio (pull-down/input)) was 0.165. Then “GATGATTGTTCTCCCAGCTGATGAATTGAAATTCTCGAGTAAACAAATTTTCCTAATCTTTCTGTTCAAGCGCCATCTAC”, with 0.366; and “GATGATTGTTCTCCCAGCTGATGAATTTCAATCATCGAGTAAACAAATTTTCCTAATCTTTCTGTTCAAGCGCCATCTAC”, with 0.558. Then “GATGATTGTTCTCCCAGCTGATGAATTGACTATGTCGAGTAAACAAATTTTCCTAATCTTTCTGTTCAAGCGCCATCTAC”, with 0.449; and “GATGATTGTTCTCCCAGCTGATGAATTGCTGCACTCGAGTAAACAAATTTTCCTAATCTTTCTGTTCAAGCGCCATCTAC”, with 1.03. Then “GATGATTGTTCTCCCAGCTGATGAATTCCGCAGATCGAGTAAACAAATTTTCCTAATCTTTCTGTTCAAGCGCCATCTAC”, with 0.352. Regarding “GATGATTGTTCTCCCAGCTGATGAATTGCGTTAGTCGAGTAAACAAATTTTCCTAATCTTTCTGTTCAAGCGCCATCTAC”, the binding signal (RPM ratio (pull-down/input)) came to 1.6. For “GATGATTGTTCTCCCAGCTGATGAATTCGCGTACTCGAGTAAACAAATTTTCCTAATCTTTCTGTTCAAGCGCCATCTAC” the value was 1.1; for “GATGATTGTTCTCCCAGCTGATGAATTTTGTTACTCGAGTAAACAAATTTTCCTAATCTTTCTGTTCAAGCGCCATCTAC”, 3.84; for “GATGATTGTTCTCCCAGCTGATGAATTAGTGCGATCGAGTAAACAAATTTTCCTAATCTTTCTGTTCAAGCGCCATCTAC”, 0.851. For “GATGATTGTTCTCCCAGCTGATGAATTTATCGAATCGAGTAAACAAATTTTCCTAATCTTTCTGTTCAAGCGCCATCTAC” the value was 0.374; for “GATGATTGTTCTCCCAGCTGATGAATTTCCCTTGTCGAGTAAACAAATTTTCCTAATCTTTCTGTTCAAGCGCCATCTAC”, 0.286; for “GATGATTGTTCTCCCAGCTGATGAATTGGCCCTTTCGAGTAAACAAATTTTCCTAATCTTTCTGTTCAAGCGCCATCTAC”, 0.366.

Consider “GATGATTGTTCTCCCAGCTGATGAATTAGACGCTTCGAGTAAACAAATTTTCCTAATCTTTCTGTTCAAGCGCCATCTAC”, for which the binding signal (RPM ratio (pull-down/input)) was found to be 0.539. Take “GATGATTGTTCTCCCAGCTGATGAATTTACTACGTCGAGTAAACAAATTTTCCTAATCTTTCTGTTCAAGCGCCATCTAC”: the binding signal (RPM ratio (pull-down/input)) came to 0.515. Then “GATGATTGTTCTCCCAGCTGATGAATTAAAGCCCTCGAGTAAACAAATTTTCCTAATCTTTCTGTTCAAGCGCCATCTAC”, with 0.498.

Regarding “GATGATTGTTCTCCCAGCTGATGAATTCATAATGTCGAGTAAACAAATTTTCCTAATCTTTCTGTTCAAGCGCCATCTAC”, the binding signal (RPM ratio (pull-down/input)) worked out at 0.441.

As for “GATGATTGTTCTCCCAGCTGATGAATTCGGTACTTCGAGTAAACAAATTTTCCTAATCTTTCTGTTCAAGCGCCATCTAC”, the binding signal (RPM ratio (pull-down/input)) was 0.575. In the case of “GATGATTGTTCTCCCAGCTGATGAATTCGATATTTCGAGTAAACAAATTTTCCTAATCTTTCTGTTCAAGCGCCATCTAC”, the binding signal (RPM ratio (pull-down/input)) stood at 1.79.

Regarding “GATGATTGTTCTCCCAGCTGATGAATTCGCTTTTTCGAGTAAACAAATTTTCCTAATCTTTCTGTTCAAGCGCCATCTAC”, the binding signal (RPM ratio (pull-down/input)) came out at 1.75. As for “GATGATTGTTCTCCCAGCTGATGAATTCGTCGGATCGAGTAAACAAATTTTCCTAATCTTTCTGTTCAAGCGCCATCTAC”, the binding signal (RPM ratio (pull-down/input)) amounted to 0.259.

For the sequence “GATGATTGTTCTCCCAGCTGATGAATTAATCCAGTCGAGTAAACAAATTTTCCTAATCTTTCTGTTCAAGCGCCATCTAC”, the binding signal (RPM ratio (pull-down/input)) was 0.17. For “GATGATTGTTCTCCCAGCTGATGAATTTTTGGTCTCGAGTAAACAAATTTTCCTAATCTTTCTGTTCAAGCGCCATCTAC”, the binding signal (RPM ratio (pull-down/input)) came out at 0.351.
